Some of the results follow.
T1: UNK ZnF1-3 (human, UniProt Q9C0B0 31-174)
T1 sequence: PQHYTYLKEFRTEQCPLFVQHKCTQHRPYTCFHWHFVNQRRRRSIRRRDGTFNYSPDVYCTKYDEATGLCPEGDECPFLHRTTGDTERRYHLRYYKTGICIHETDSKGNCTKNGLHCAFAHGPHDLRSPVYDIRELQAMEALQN

B1: chr5:21408736:21408737:-_ENSMUSG00000042453_ENSMUST00000161356|mus_hu|mus_mus_mus_hu_False|28_58 (ssRNA)
RNA: GGGAGUUCUACAGUCCGACGAUCGUUGACAGAGUUGUAGAUGGUGGCUUCAUGGAACUGGAAAGGGGAGCAGCCAAUGCUAUUGGAAGAGGAAGGAAGGCACUGGGUCUGCACGAGCUGCCAGGAAUCCGAUCUUGCAUCCUUCAACAGAGGAUUGAGCAUCA
B2: chr12:54651456:54651457:-_ENSG00000094916_ENST00000209875|hu_mus|FALSE|FALSE (ssRNA)
RNA: GGGAGUUCUACAGUCCGACGAUCGGCUGUCCUCUUGGUCUUCUUUCCCAUGUCGUGUGCCUGUUGAUCCACCUGAAGGAGUAUGGCCACCAGGUUCCCAAGAUCUAAAGUGAUCACUCACGCUAAGGCCUGCACGGUUCCUCUCAACAGAGGAUUGAGCAUCA
B3: 52703668_52703788_811_CDS_ENSG00000157077_ENST00000287727|human|control|control (ssRNA)
RNA: GGGAGUUCUACAGUCCGACGAUCUGAAGUAGGACACAGAUGGUUAACAGAUCUCCCCUCUGUUUUCGGUCUAUUCAAUGGAUCCAUUUGUUUCUCUGAAUUCAUAUCUUUUUCAGUGGACUCAUUUAUACUAAAACUAAAUUGCAACAGAGGAUUGAGCAUCA
B4: 141359452_141359572_4311_3pUTR_ENSG00000257093_ENST00000536163|human|control|control (ssRNA)
RNA: GGGAGUUCUACAGUCCGACGAUCAACUGGCACAUAGUUCAUUUCACAGUGUGGCAUGAGAUCAGGCUGACAGCUUCACAGGAGAACUAGGCCUGCUCAGGCAGGCGAGGGCUGAGGCCCGGCAGGAGAUGGUGGCAGAAGGUGCAACAGAGGAUUGAGCAUCA
B5: chr11:87793186:87793187:-_ENSMUSG00000020483_ENSMUST00000020775|mus_mus|motif|central (ssRNA)
RNA: GGGAGUUCUACAGUCCGACGAUCCCAGAGUCUGGGAGGGCAGGGAAACACAGAUCUGGACAUUCAUAAGAAAAAUAAAACCGGAAAUCAAACAUUCAAUCCUGUACCCAAUAACGGUUUGAACAGGGAACUCAGUCCCCACCACAACAGAGGAUUGAGCAUCA
B6: chr14:31074762:31074763:+_ENSG00000092140_ENST00000206595|hu_mus|motif|central (ssRNA)
RNA: GGGAGUUCUACAGUCCGACGAUCCCACACAUUGGCUUUGUUGAUGUAUAAUGUCUUAGUUUUCUUUUUAAUUUGGAAUCCGGACUCGGUCAAUAUUGUUGAAAUGUCUCUCCUAAAUUUGCUGCCUUGCCUCAGUAGUUCUUUCAACAGAGGAUUGAGCAUCA
B7: chr17:30356047:30356048:-_ENSMUSG00000062202_ENSMUST00000168787|mus_mus|FALSE|FALSE (ssRNA)
RNA: GGGAGUUCUACAGUCCGACGAUCUAUUGCUUGCUAGAGACACUGGCAACUCCAGGCUGGAUGCUGCCCCACACACAAUAGCUACACGCUGGCUACAUCCAUGGAAACCUCCCUACCAAAGGCAGCCACACCACACAGCAAAAUCAACAGAGGAUUGAGCAUCA
B8: chr5:110835399:110835400:-_ENSG00000164211_ENST00000296632|hu_hu|motif|central (ssRNA)
RNA: GGGAGUUCUACAGUCCGACGAUCUGAGAGCCUGUCUCAAAAUUUAAAAAAAAAAAAGUGAAAAUGCCCUCUCUUAGAUAGCGGUUUACUUUAGGAAUAAAACCAAACAUUGUACUAGUGAACCAAAAACAUUUCAAAUUUUUCCAACAGAGGAUUGAGCAUCA
B9: chr5:74677807:74677808:-_ENSG00000113163_ENST00000380494|hu_hu|motif|central (ssRNA)
RNA: GGGAGUUCUACAGUCCGACGAUCACGGACACAUCGGUUGUUUAGAGGAGCACUGUCAUGAUCCACAGAAAAAUUACAAACGGUCCAAGUUUCAGGGUCAUUUUCAGUCAAGGCUGGUAUCUUUCGAAUGACAGAAAGAUAUAACAACAGAGGAUUGAGCAUCA
B10: chr1:127300101:127300102:-_ENSMUSG00000026341_ENSMUST00000027579|perfect_dup|motif|central (ssRNA)
RNA: GGGAGUUCUACAGUCCGACGAUCAGUAUACUGUUUAAUCCAUUUUGACCCAUCUGUAUCAUACUUGUUAAAUUCUUUUACGGAAUCUGGGCAGACAUAACUAUAGCGCUCCUUUACUGCCUUAGCAGUUUCCAAGGAUUGUUCCAACAGAGGAUUGAGCAUCA
B11: chr2:32089778:32089779:+_ENSMUSG00000039262_ENSMUST00000036691|mus_mus|FALSE|FALSE (ssRNA)
RNA: GGGAGUUCUACAGUCCGACGAUCCUAAACAAGCUGCACAGUACACCUUUAGCAUCGUCUGCCCUUUCAAAUAGCUGGUCUAAGUGAAAGACAGAGGGAAGGCCAAAAGAAAAGCAAAGGAAAACAAAAGGACCCUCAAAAAGACAACAGAGGAUUGAGCAUCA
B12: chr3:115528449:115528450:-_ENSG00000185565_ENST00000490035|hu_hu|motif|central (ssRNA)
RNA: GGGAGUUCUACAGUCCGACGAUCCACACACGCACAGUGGAGAAAAUGAAAAUGGCACUUCCUAGCAUUUGCGGCAUGACGGGUGCUCUGGGGAGGGGGUGGAGGUGAGGAGAGGUGAGGGAGGAAAGGUGGGUGAAAAGGGAGCAACAGAGGAUUGAGCAUCA
B13: 75419824_75419944_3436_3pUTR_ENSMUSG00000032186_ENSMUST00000064433|mouse|control|control (ssRNA)
RNA: GGGAGUUCUACAGUCCGACGAUCGAAAGAGUUAUUCAACCUCCAAAGGGAUUGUGACCCACAGGUUGAGAACCACUGACUUAGCGACAUAGAGAGAAGGGAAACAAGAAGGAUGCUUUGUCAUGAAAGGAGAGGAAAAGGAAGCAACAGAGGAUUGAGCAUCA
B14: chr4:138660994:138660995:-_ENSMUSG00000050608_ENSMUST00000143971|mus_hu|FALSE|FALSE (ssRNA)
RNA: GGGAGUUCUACAGUCCGACGAUCGAAAUCAUGCUGACAGUUGGAAUAAGCCAUUCCUAAUCCCAUGCCAGAACCGAAGGCUAAUGGCCACAUUCUUCUUUUAAAGAAGGUAAGUGAGAAAACAAUUCCUAAUCCAAAACCAGUCAACAGAGGAUUGAGCAUCA
B15: chr9:131455196:131455197:+_ENSG00000119335_ENST00000372688|hu_mus|FALSE|FALSE (ssRNA)
RNA: GGGAGUUCUACAGUCCGACGAUCAAAUUCUUUGGAGAGAACUUUAUUUUCAAAGUAAGGAUUUUCAUCAAAAUAAAAAUCUAUUCUGUAACCUGAUUUAAUGUCUUCAAAUUCUGUCACUUCAACUCUGGUCAAAUAAUGCAGCAACAGAGGAUUGAGCAUCA
B16: chr22:32879901:32879902:+_ENSG00000100225_ENST00000397426|hu_mus|hu_hu_hu_mus_False|18_48 (ssRNA)
RNA: GGGAGUUCUACAGUCCGACGAUCCUCUUCCAUACUCAUGGCAUCCUGAAUUGACUCAGCUUCAACAUUUUGACUAGGCCCUUCCAUACUGUCGUCAGUCCAGGCAUCAAAUGGGGUUGCCUGUCCUUGGGAUGAAUCAGUCCCCAACAGAGGAUUGAGCAUCA
B17: chr17:30807540:30807541:+_ENSG00000108671_ENST00000457654|hu_hu|FALSE|FALSE (ssRNA)
RNA: GGGAGUUCUACAGUCCGACGAUCGUUCUGAAUUGUUUCCAGAGCAGCUUCGUAAGUUUUAUCUACUGGGGGUUCAUCGAAAAUAAUCAGGACACCCUCCCCCUGGUCCAAAAUCCCAUGAAAUUUCUUGUCAAGAAUCAUCUGCAACAGAGGAUUGAGCAUCA
B18: 102154940_102155060_4973_CDS_ENSMUSG00000021182_ENSMUST00000068411|mouse|control|control (ssRNA)
RNA: GGGAGUUCUACAGUCCGACGAUCGGGUGGAGGGUACUCAUGGCGGCCGAGAAGACCACGUCCCGAGGUGUUGCCAUCCCGAGACAGCGUGGCAGGGUCCCUGCUGGGGAUCAGGUCUGCGCUGCUGAAGCUCUCACACCGGCUCAACAGAGGAUUGAGCAUCA
B19: chr5:146773406:146773407:-_ENSG00000113657_ENST00000343218|hu_hu|motif|central (ssRNA)
RNA: GGGAGUUCUACAGUCCGACGAUCGGCCUGUCUGAUUGCAUGCAUGUAAAUGGGGGGAGGGGAGUCAAACAAAUCAAGGCGGUGCAUAAACAGAAAACAAAGCAAUAUUCGUAAAGCUAGGCAAGCGAGCGUAACAUUGGAGAACAACAGAGGAUUGAGCAUCA
B20: chr4:144460044:144460045:+_ENSG00000153147_ENST00000283131|hu_mus|hu_hu_hu_mus_False|88_98 (ssRNA)
RNA: GGGAGUUCUACAGUCCGACGAUCACGGUCCAUAGCCUGAAGAUCUACUUGGGGAUUCCAAUCUGAGUCAUAUAAAAUGACUACAUCAGCAGUUGCAAGAUUGAUGCCCAGACCACCAGCACGUGUGCUUAGCAUAAAUACAAACAACAGAGGAUUGAGCAUCA
B21: chr7:141445308:141445309:+_ENSG00000106028_ENST00000265304|hu_hu|hu_hu_hu_mus_False|38_98 (ssRNA)
RNA: GGGAGUUCUACAGUCCGACGAUCUAUGAUUGUUGUUGCUUGUCGCCUCACAUUGUUUUUAUCCAUGUACUCGCCAUAGUCCACUUUCCCUUCCACAUAAAUUCGAGCCCCCUUUUUCACAUACUGAUAUGCCACAUCUCUGAGCAACAGAGGAUUGAGCAUCA
B22: chr14:53113150:53113151:-_ENSG00000197930_ENST00000395686|hu_hu|FALSE|FALSE (ssRNA)
RNA: GGGAGUUCUACAGUCCGACGAUCUCCCCACAGACGACAUUUAAAACAACCAACACAAUCCAUAAUUCUUGAAAUAUUUCUAAAAUGCAGUCGAAAGUCCUCCUUUAGUUUGUGUGCUUCUUUUUUAUCCCCAGCAAAAAAUGACAACAGAGGAUUGAGCAUCA

Biological target: T1, UNK ZnF1-3
Experiment: nsRBNS (natural sequence RNA bind-n-seq); RBNS binding buffer (assumed for nsRBNS): 25 mM Tris pH 7.5, 150 mM KCl, 3 mM MgCl2, 0.01% Triton X-100, 500 ug/ml BSA, 20 U/ml SUPERase-In, 4 C; UNK is unkempt and MSI1 is Musashi-1; names of the RNAs are library labels; protein concentration not given here; high values mean tight binding

| Binder | binding signal [enrichment R] |
| --- | --- |
| B1 | 1.59 |
| B2 | 0.825 |
| B3 | 0.548 |
| B4 | 1.94 |
| B5 | 1.94 |
| B6 | 0.851 |
| B7 | 1.2 |
| B8 | 1.93 |
| B9 | 1.03 |
| B10 | 0.435 |
| B11 | 2.31 |
| B12 | 2.25 |
| B13 | 2.26 |
| B14 | 1.09 |
| B15 | 0.623 |
| B16 | 0.925 |
| B17 | 0.934 |
| B18 | 0.771 |
| B19 | 1.97 |
| B20 | 1.28 |
| B21 | 0.614 |
| B22 | 1.91 |
